# Some of the results follow.
# Tests used:
# Assay in all cases: glycan array binding signal (z-score within array); higher = stronger binding
# Settings in all cases: glycan notation: IUPAC condensed, linker removed
# [1] = molecular target: Gal(a1-3)Gal(b1-4)GlcNAc(b1-2)Man
# Method in brief: (§1)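 The binding signal is a Z-score computed within each array and averaged over linkers. Arrays of the same protein sequence at different concentrations or buffers were also averaged together. Data originate from 3228 arrays in the Consortium for Functional Glycomics database, kept only where the protein sequence was available.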
# [2] = molecular target: Gal(a1-3)Gal(b1-4)GlcNAc(b1-2)Man(a1-3)[Gal(a1-3)Gal(b1-4)GlcNAc(b1-2)Man(a1-6)]Man(b1-4)GlcNAc(b1-4)GlcNAc
# Method in brief: as §1
# [3] = molecular target: Gal(a1-3)Gal(b1-4)GlcNAc(b1-3)GalNAc
# Method in brief: as §1
# [4] = molecular target: Gal(a1-3)Gal(b1-4)GlcNAc(b1-6)GalNAc
# Method in brief: as §1
# [5] = molecular target: Gal(a1-3)Gal(b1-4)[Fuc(a1-3)]GlcNAc
# Method in brief: as §1
# [6] = molecular target: Gal(a1-3)Gal(b1-4)[Fuc(a1-3)]GlcNAc(b1-2)Man(a1-3)[Gal(a1-3)Gal(b1-4)[Fuc(a1-3)]GlcNAc(b1-2)Man(a1-6)]Man(b1-4)GlcNAc(b1-4)GlcNAc
# Method in brief: as §1
# Gal(a1-3)GalNAc = molecular target: Gal(a1-3)GalNAc
# Method in brief: as §1
# [7] = molecular target: Gal(a1-3)[Gal(a1-4)]Gal(b1-4)GlcNAc
# Method in brief: as §1
# [8] = molecular target: Gal(a1-4)Gal(b1-3)GlcNAc(b1-2)Man(a1-3)[Gal(a1-4)Gal(b1-3)GlcNAc(b1-2)Man(a1-6)]Man(b1-4)GlcNAc(b1-4)GlcNAc
# Method in brief: as §1
# Gal(a1-4)Gal(b1-4)Glc = molecular target: Gal(a1-4)Gal(b1-4)Glc
# Method in brief: as §1
# Gal(a1-4)Gal(b1-4)GlcNAc = molecular target: Gal(a1-4)Gal(b1-4)GlcNAc
# Method in brief: as §1
# [9] = molecular target: Gal(a1-4)Gal(b1-4)GlcNAc(b1-2)Man(a1-3)[Gal(a1-4)Gal(b1-4)GlcNAc(b1-2)Man(a1-6)]Man(b1-4)GlcNAc(b1-4)GlcNAc
# Method in brief: as §1
# [10] = molecular target: Gal(a1-4)Gal(b1-4)GlcNAc(b1-3)Gal(b1-4)Glc
# Method in brief: as §1
# Gal(a1-4)GlcNAc = molecular target: Gal(a1-4)GlcNAc
# Method in brief: as §1
# Gal(a1-6)Glc = molecular target: Gal(a1-6)Glc
# Method in brief: as §1
# Gal(b1-2)Gal = molecular target: Gal(b1-2)Gal
# Method in brief: as §1
# Gal(b1-3)Gal = molecular target: Gal(b1-3)Gal
# Method in brief: as §1
# Gal(b1-3)Gal(b1-4)GlcNAc = molecular target: Gal(b1-3)Gal(b1-4)GlcNAc
# Method in brief: as §1
# Gal(b1-3)GalNAc = molecular target: Gal(b1-3)GalNAc
# Method in brief: as §1
# [11] = molecular target: Gal(b1-3)GalNAc(a1-3)[Fuc(a1-2)]Gal(b1-4)Glc
# Method in brief: as §1
# [12] = molecular target: Gal(b1-3)GalNAc(a1-3)[Fuc(a1-2)]Gal(b1-4)GlcNAc
# Method in brief: as §1
# Gal(b1-3)GalNAc(b1-3)Gal = molecular target: Gal(b1-3)GalNAc(b1-3)Gal
# Method in brief: as §1
# [13] = molecular target: Gal(b1-3)GalNAc(b1-3)Gal(a1-4)Gal(b1-4)Glc
# Method in brief: as §1
# [14] = molecular target: Gal(b1-3)GalNAc(b1-4)Gal(b1-4)Glc
# Method in brief: as §1
# [15] = molecular target: Gal(b1-3)GalNAc(b1-4)[Neu5Ac(a2-3)]Gal(b1-4)Glc
# Method in brief: as §1
# Gal(b1-3)GlcNAc = molecular target: Gal(b1-3)GlcNAc
# Method in brief: as §1
# [16] = molecular target: Gal(b1-3)GlcNAc(a1-3)Gal(b1-4)GlcNAc
# Method in brief: as §1
# [17] = molecular target: Gal(b1-3)GlcNAc(a1-6)Gal(b1-4)GlcNAc
# Method in brief: as §1
# Gal(b1-3)GlcNAc(b1-2)Man = molecular target: Gal(b1-3)GlcNAc(b1-2)Man
# Method in brief: as §1
# [18] = molecular target: Gal(b1-3)GlcNAc(b1-2)Man(a1-3)[Gal(b1-3)GlcNAc(b1-2)Man(a1-6)]Man(b1-4)GlcNAc(b1-4)GlcNAc
# Method in brief: as §1
# [19] = molecular target: Gal(b1-3)GlcNAc(b1-2)Man(a1-3)[Gal(b1-3)GlcNAc(b1-2)Man(a1-6)]Man(b1-4)GlcNAc(b1-4)[Fuc(a1-6)]GlcNAc
# Method in brief: as §1
# [20] = molecular target: Gal(b1-3)GlcNAc(b1-2)Man(a1-3)[GlcNAc(b1-4)][Gal(b1-3)GlcNAc(b1-2)Man(a1-6)]Man(b1-4)GlcNAc(b1-4)GlcNAc
# Method in brief: as §1
# [21] = molecular target: Gal(b1-3)GlcNAc(b1-2)[Gal(b1-3)GlcNAc(b1-6)]Man(a1-6)[Gal(b1-3)GlcNAc(b1-2)Man(a1-3)]Man(b1-4)GlcNAc(b1-4)GlcNAc
# Method in brief: as §1
# [22] = molecular target: Gal(b1-3)GlcNAc(b1-3)Gal(b1-3)GlcNAc
# Method in brief: as §1
# [23] = molecular target: Gal(b1-3)GlcNAc(b1-3)Gal(b1-4)Glc
# Method in brief: as §1
# [24] = molecular target: Gal(b1-3)GlcNAc(b1-3)Gal(b1-4)GlcNAc
# Method in brief: as §1
# [25] = molecular target: Gal(b1-3)GlcNAc(b1-3)Gal(b1-4)GlcNAc(b1-2)Man(a1-3)[Gal(b1-3)GlcNAc(b1-3)Gal(b1-4)GlcNAc(b1-2)Man(a1-6)]Man(b1-4)GlcNAc(b1-4)GlcNAc
# Method in brief: as §1
# [26] = molecular target: Gal(b1-3)GlcNAc(b1-3)Gal(b1-4)GlcNAc(b1-2)[Gal(b1-3)GlcNAc(b1-3)Gal(b1-4)GlcNAc(b1-6)]Man(a1-6)[Gal(b1-3)GlcNAc(b1-3)Gal(b1-4)GlcNAc(b1-2)Man(a1-3)]Man(b1-4)GlcNAc(b1-4)[Fuc(a1-6)]GlcNAc
# Method in brief: as §1
# [27] = molecular target: Gal(b1-3)GlcNAc(b1-3)Gal(b1-4)GlcNAc(b1-3)Gal(b1-4)GlcNAc(b1-2)[Gal(b1-3)GlcNAc(b1-3)Gal(b1-4)GlcNAc(b1-3)Gal(b1-4)GlcNAc(b1-6)]Man(a1-6)[Gal(b1-3)GlcNAc(b1-3)Gal(b1-4)GlcNAc(b1-3)Gal(b1-4)GlcNAc(b1-2)Man(a1-3)]Man(b1-4)GlcNAc(b1-4)[Fuc(a1-6)]GlcNAc
# Method in brief: as §1
# [28] = molecular target: Gal(b1-3)GlcNAc(b1-3)Gal(b1-4)GlcNAc(b1-6)[Gal(b1-3)GlcNAc(b1-3)]Gal(b1-4)Glc
# Method in brief: as §1
# [29] = molecular target: Gal(b1-3)GlcNAc(b1-3)Gal(b1-4)[Fuc(a1-3)]GlcNAc
# Method in brief: as §1
# [30] = molecular target: Gal(b1-3)GlcNAc(b1-3)Gal(b1-4)[Fuc(a1-3)]GlcNAc(b1-6)[Gal(b1-3)GlcNAc(b1-3)]Gal(b1-4)Glc
# Method in brief: as §1
# [31] = molecular target: Gal(b1-3)GlcNAc(b1-3)GalNAc
# Method in brief: as §1
# [32] = molecular target: Gal(b1-3)GlcNAc(b1-6)Gal(b1-4)GlcNAc
# Method in brief: as §1
# [33] = molecular target: Gal(b1-3)GlcNAc(b1-6)GalNAc
# Method in brief: as §1
binder,measurement,setting,value
Cohesin-hDCIR (Homo sapiens) (protein) LDDLDAVRIKVDTVNAKPGDTVRIPVRFSGIPSKGIANCDFVYSYDPNVLEIIEIEPGDIIVDPNPDKSFDTAVYPDRKIIVFLFAEDSGTGAYAITKDGVFATIVAKVKEGAPNGLSVIKFVEVGGFANNDLVEQKTQFFDGGANVGDTTEPATPTTPVTTPTTTDDLDAASQKYSQLLEKKTTKELVHTTLECVKKNMPVEETAWSCCPKNWKSFSSNCYFISTESASWQDSEKDCARMEAHLLVINTQEEQDFIFQNLQEESAYFVGLSDPEGQRHWQWVDQTPYNESSTFWHPREPSDPNERCVVLNFRKSPKRWGWNDVNCLGPQRSVCEMMKIHLHHHHHH,glycan array binding signal (z-score),[1],0.022
same,glycan array binding signal (z-score),[2],0.737
same,glycan array binding signal (z-score),[3],0.487
same,glycan array binding signal (z-score),[4],5.08
same,glycan array binding signal (z-score),[5],-0.481
same,glycan array binding signal (z-score),[6],0.016
same,glycan array binding signal (z-score),Gal(a1-3)GalNAc,-0.529
same,glycan array binding signal (z-score),[7],-0.584
same,glycan array binding signal (z-score),[8],1.44
same,glycan array binding signal (z-score),Gal(a1-4)Gal(b1-4)Glc,-0.021
same,glycan array binding signal (z-score),Gal(a1-4)Gal(b1-4)GlcNAc,-0.12
same,glycan array binding signal (z-score),[9],-0.225
same,glycan array binding signal (z-score),[10],-0.358
same,glycan array binding signal (z-score),Gal(a1-4)GlcNAc,-0.042
same,glycan array binding signal (z-score),Gal(a1-6)Glc,-0.425
same,glycan array binding signal (z-score),Gal(b1-2)Gal,1.61
same,glycan array binding signal (z-score),Gal(b1-3)Gal,-0.617
same,glycan array binding signal (z-score),Gal(b1-3)Gal(b1-4)GlcNAc,-0.471
same,glycan array binding signal (z-score),Gal(b1-3)GalNAc,-0.564
same,glycan array binding signal (z-score),[11],-0.417
same,glycan array binding signal (z-score),[12],-0.285
same,glycan array binding signal (z-score),Gal(b1-3)GalNAc(b1-3)Gal,0.283
same,glycan array binding signal (z-score),[13],-0.002
same,glycan array binding signal (z-score),[14],-0.444
same,glycan array binding signal (z-score),[15],-0.315
same,glycan array binding signal (z-score),Gal(b1-3)GlcNAc,-0.094
same,glycan array binding signal (z-score),[16],-0.6
same,glycan array binding signal (z-score),[17],0.327
same,glycan array binding signal (z-score),Gal(b1-3)GlcNAc(b1-2)Man,-0.472
same,glycan array binding signal (z-score),[18],-0.055
same,glycan array binding signal (z-score),[19],-0.088
same,glycan array binding signal (z-score),[20],0.109
same,glycan array binding signal (z-score),[21],-0.003
same,glycan array binding signal (z-score),[22],0.078
same,glycan array binding signal (z-score),[23],-0.668
same,glycan array binding signal (z-score),[24],-0.518
same,glycan array binding signal (z-score),[25],-0.035
same,glycan array binding signal (z-score),[26],-0.519
same,glycan array binding signal (z-score),[27],-0.252
same,glycan array binding signal (z-score),[28],-0.561
same,glycan array binding signal (z-score),[29],-0.243
same,glycan array binding signal (z-score),[30],-0.655
same,glycan array binding signal (z-score),[31],-0.648
same,glycan array binding signal (z-score),[32],0.159
same,glycan array binding signal (z-score),[33],1.36
